Test results published in PubChem BioAssay AID1508624 (National Center for Advancing Translational Sciences (NCATS), 2021).
Hit rate of the full screen: of about 48,000 compounds, about 120 (0.25%) were called active. Not shown: some 4% with an inconclusive outcome. The call rests on the fitted dose curve; in most records, active means well fitted activation curve with a large enough effect; inconclusive means small, poorly fitted or top-dose-only effect, or another doubt; inactive means no such curve, though single readings can be large or run the other way. The list shows a part of the results, in another mix than the full data. The source gives no active or inactive call for entries shown without one.

Experiment: Primary qHTS for Identification of Small Molecule Activators of Huntingtin-Antisense Promoter Activity; further: nearly all actives have a fitted effect of over 55% in size
Settings: HEK293 HTT-AS promoter firefly luciferase reporter, 24 h; activity change, positive = activation: at 57.5 µM (top of the series), percent change from vehicle, -100% = no light
Method in brief: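 Quantitative HTS used concentration series of up to 57.5 uM final on HEK293 luciferase reporter cells, 24 h at 37 degrees C. Readout was Dual-Glo firefly luminescence.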
Potency means the concentration at half of the fitted maximal effect.

Point of comparison: `CCc1nc2sc3c(N4CCCCC4)ncnc3c2c2c1CCCC2`, activity change, positive = activation -4.17%. Against it:
- COc1cc2c(-c3ccc(C)cc3)nc3c(c(C)nn3-c3ccccc3)c2cc1OC — higher, 0.0315%
- COc1cc(NC(=O)c2cc(-c3ccc(Cl)c(Cl)c3)on2)cc(OC)c1OC — higher, 9.53%
- COc1ccc(N2CCN(C(=O)C3CCN(S(=O)(=O)Cc4ccccc4)CC3)CC2)cc1 — higher, -1.74%
- COc1ccc(CN2COc3ccc4c(-c5ccc(OC)cc5)cc(=O)oc4c3C2)cc1 — lower, -11.1%
- CCOc1ccc(C2C(=O)N(C3CCCCCC3)CC(=O)N2CCc2ccccc2)cc1OC (stereo unspecified) — lower, -22.6%
- CC1CCN(C(=O)c2cc(-c3cccc(Cl)c3)on2)CC1 — higher, 40%
- Cc1ccc(CN2CCN(C3CCN(S(=O)(=O)c4ccc(C)cc4)CC3)C(=O)C2=O)cc1 — higher, 0.164%
- Cc1ccc(CNC(=O)CCc2c(C)nn(-c3ccc(N4CCCC4)nn3)c2C)cc1 — lower, -6.37%
- CCOC(=O)C1CCN(CCC(=O)Nc2ccccc2Cl)CC1 — lower, -7.88%
- COc1ccc(N(C(=O)/C=C\C(=O)Nc2ccc(Cl)cc2)C(C(=O)NCc2ccco2)c2ccc(C)cc2)cc1 (stereo unspecified) — lower, -39.8%
- Cn1c(=O)c2c(-c3ccccc3)n3c(c2n(C)c1=O)C(c1ccccc1[N+](=O)[O-])Nc1ccccc1-3 (stereo unspecified) — lower, -4.46%
- CCOc1ccccc1NS(=O)(=O)c1ccc2c(c1)CC(C)N2C(=O)C1CCC1 (stereo unspecified) — lower, -39.6%
- COC(=O)c1cc2oc3ccccc3c2n1CC(=O)Nc1ccc(C)cc1C — higher, 7.94%
- CCCOc1ccc(CNC(=O)c2cc3ccccn3n2)cc1 — higher, 48.1%
- COc1ccc(-c2cc(C(=O)Nc3cnn(Cc4ccc(F)cc4)c3)no2)cc1OC — higher, 0.41%
- CCOc1ccc(NC(=O)CC2C(=O)N(c3cccc(C)c3)C(=O)N2Cc2ccco2)cc1 (stereo unspecified) — higher, 0.866%
- COc1ccccc1NC(=O)C1=C(C)Nc2ncnn2C1c1ccccn1 (stereo unspecified) — lower, -6.64%
- CCOc1ccccc1NS(=O)(=O)c1ccc2oc(=O)c3ncn(C)c3c2c1 — lower, -5.74%
- Cc1nc(SCC(=O)OC(C)(C)C)c2c3c(sc2n1)CCCC3 — higher, -3.4%
- Cc1ccc(C2Nc3ccccc3-n3c(-c4ccccc4)c4c(=O)n(C)c(=O)n(C)c4c32)cc1 (stereo unspecified) — lower, -6%
- Cc1oc2ccc(O)c(CN3CCC(C)CC3)c2c1C(=O)Nc1ccccc1 — lower, -13.4%
- Cc1cc(C)cc(NS(=O)(=O)c2ccc(-c3cc(C)no3)cc2)c1 — lower, -33.7%
- Cn1c(=O)c2c(-c3ccccc3)n3c(c2n(C)c1=O)C(c1cc(Cl)ccc1O)Nc1ccccc1-3 (stereo unspecified) — lower, -7.05%
- Cc1c(NS(=O)(=O)c2ccc(C(C)(C)C)cc2)c(=O)n(-c2ccccc2)n1C — lower, -7.26%
- Cc1ccc(C)c(N2CCN(C(c3ccccc3)c3nnc(-c4ccccc4)o3)CC2)c1 (stereo unspecified) — lower, -15.5%
- COc1ccc(-c2cc(C(=O)Nc3c(C)nn(Cc4ccccc4C)c3C)no2)cc1 — lower, -14.6%
- COc1ccc(NC(=O)c2cnc3sc(N4CCOCC4)nn3c2=O)c(OC)c1 — higher, 3.04%
- Cn1cnc2c(=O)oc3ccc(S(=O)(=O)Nc4ccc(F)cc4)cc3c21 — higher, 3.54%
- CCCCN(CC)CCCNC(=O)Nc1sc2nc3n(c(=O)c2c1C)CCC(C)CC3 (stereo unspecified) — lower, -15.3%
- CC(C)CCNC(=O)c1cnc2sc(N3CCCCC3)nn2c1=O — higher, 2.04%
- Cc1c(NC(=O)Nc2ccccc2C(F)(F)F)sc2nc3n(c(=O)c12)CCC(C)CC3 (stereo unspecified) — higher, 7.22%
- CC1CCC(N2CC(=O)N(C3CCCCC3)C(c3ccc(F)cc3)C2=O)CC1 (stereo unspecified) — lower, -9.24%
- CC1Cc2cc(S(=O)(=O)NCCc3ccccc3)ccc2N1C(=O)C1CCC1 (stereo unspecified) — lower, -33.3%
- CCOc1ccc(NC(=O)/C=C\C(=O)N(c2ccc(C(C)C)cc2)C(C(=O)NCc2ccco2)c2ccc(F)cc2)cc1 (stereo unspecified) — lower, -33.7%
- O=C(NCCc1nc2ccccc2n1Cc1ccc(F)cc1)c1ccco1 — lower, -16.1%
- CS(=O)(=O)N1CCC(N2CCN(Cc3ccccc3)C(=O)C2=O)CC1 — higher, 2.77%
- O=S(=O)(Nc1cccc(-c2ccc(N3CCCCCC3)nn2)c1)c1cccc(F)c1 — higher, 51.1%
- COc1cc(C)c(C)cc1S(=O)(=O)Nc1cccc(-c2ccc(N3CCOCC3)nn2)c1 — higher, 3.85%
- CC(=O)N1CCc2cc(S(=O)(=O)CCC(=O)NCc3ccc(Cl)cc3)ccc21 — lower, -36.3%
- O=C(Nc1cccnc1Cl)c1cc(-c2cccc(Cl)c2)on1 — higher, 8.65%
- COc1ccc(OC)c(NC(=O)/C=C/c2ccc(C)o2)c1 — higher, 18.1%
- CCc1cccc(C)c1NC(=O)c1cccc(C(=O)Nc2c(C)cccc2CC)c1 — lower, -29.9%
- CC(=O)c1cccc(NC(=O)c2noc3c2CCCC3)c1 — higher, 76.6%
- CCc1nn(CC(=O)NCCc2ccc(OC)cc2OC)c(=O)c2cc3c(OC)cccc3n12 — lower, -17.9%
- CCc1cc(=O)oc2c3c(c(Cl)cc12)OCN(Cc1cccc(OC)c1)C3 — lower, -9.31%
- CCS(=O)(=O)N1N=C(c2ccc(C)cc2)CC1c1cc2ccc(OC)cc2nc1Cl (stereo unspecified) — lower, -22.3%
- Cc1ccc(C2Nc3ccccc3-n3c(-c4ccccc4)c4c(=O)n(C)c(=O)n(C)c4c32)o1 (stereo unspecified) — higher, -2.87%
- CSc1ccc(CNC(=O)c2cc3c(=O)n(Cc4ccco4)ccc3nc2C)cc1 — lower, -15.3%
- COc1ccccc1OCCn1c(-c2ccc(Br)cc2)nc2ccccc2c1=O — higher, 5.48%
- CCOCCCN1C(=O)CN(C2CCCCCC2)C(=O)C1c1ccc(OC(C)C)c(OC)c1 (stereo unspecified) — higher, -0.4%
- CCCCOc1ccc(S(=O)(=O)Nc2ccc(-c3ccc(N4CCCCCC4)nn3)cc2)cc1 — higher, 0.987%
- CCOC(=O)C1CCN(C(=O)Cn2nc(C)n3c(cc4cc(F)ccc43)c2=O)CC1 — lower, -7.78%
- CCCCN1C(=O)CN(C2CCCCCC2)C(=O)C1c1ccc(OCCC)c(OC)c1 (stereo unspecified) — lower, -30.2%
- Cc1coc2cc3oc(=O)c(CCC(=O)NCc4ccc(Cl)cc4)c(C)c3cc12 — lower, -44%
- COc1cc(C2C(=O)N(C3CCCCC3)CC(=O)N2Cc2ccc(C)cc2)ccc1OC(C)C (stereo unspecified) — lower, -22%
- CC(=O)c1ccc(S(=O)(=O)Nc2cccc(-c3ccc(N4CCCCCC4)nn3)c2)cc1 — higher, 14.2%
- O=C(Nc1c(Cl)cccc1Cl)c1cc(-c2ccc3c(c2)OCO3)on1 — higher, 75%
- COC(=O)c1cc2oc3ccccc3c2n1Cc1nc(-c2ccc(OC)cc2)oc1C — higher, -2.27%
- Cc1ccc(-n2ncc(C(=O)NCc3ccccc3C)c2-n2cccc2)cc1 — lower, -27.6%
- Cc1ccc(NC(=O)/C=C/c2ccc(C)o2)c(C)c1 — higher, 25.1%
- CCS(=O)(=O)N1CCC(n2c(C(F)(F)F)nc3cccnc32)CC1 — higher, 1.6%
- COc1ccc(C2C(=O)N(C3CCCCCC3)CC(=O)N2Cc2ccc(C)cc2)cc1OC (stereo unspecified) — lower, -11.3%
- Cn1c(=O)c2c(ncn2CC(=O)Nc2cccc(C(F)(F)F)c2)n(C)c1=O — lower, -9.84%
- COc1ccccc1N1CCN(C(=O)c2cc3c(=O)n(Cc4ccco4)ccc3nc2C)CC1 — lower, -8.04%
- CC(=O)c1ccc(S(=O)(=O)Nc2cccc(-c3ccc(N4CCCCC4)nn3)c2)cc1 — higher, 30.8%
- Cc1ccc(CNC(=O)CCc2c(C)nn(-c3ccc(N4CCCCC4)nn3)c2C)cc1 — higher, 5.25%
- CCOc1cc(-c2nc3c(c(CC)nn3-c3ccccc3)c3cc(OC)c(OC)cc23)ccc1O — higher, 1.08%
- CCOC(=O)c1c(-c2ccccc2)oc2ccc(NS(=O)(=O)c3ccc(C)cc3C)cc12 — lower, -9.64%
- CN(Cc1ccccc1)C(=O)C1CCN(S(=O)(=O)Cc2ccccc2)CC1 — lower, -5.59%

With `CCC(CO)Nc1ncnc2c1cnn2-c1ccc(C)cc1` (stereo unspecified) the “activity change, positive = activation” value was inactive: -45.7%.
For `Cc1ccc(C)c(N2CCN(C(=O)c3ccc4c(c3)c(C)c(C)n4C)CC2)c1`, the “activity change, positive = activation” value was inactive: -27.2%.
In the case of `Cc1cc(C)c(Cn2c3ccccc3c3cnn(CC(=O)N4CCCCC4)c(=O)c32)c(C)c1`, the “activity change, positive = activation” value is reported as inactive: -24%.
With `Fc1ccc(NCc2cccn2-c2nnc(N3CCOCC3)s2)cc1` the “activity change, positive = activation” value was inactive: 4.18%.
With `CCCN1CCN(CCCNC(=O)c2c(C)nn(-c3ccc(F)cc3)c2-n2cccc2)CC1` the “activity change, positive = activation” value was inactive: -0.235%.
In the case of `Cc1ccc(N2C(=O)N(Cc3cccc(Cl)c3)c3ccccc3S2(=O)=O)cc1`, the “activity change, positive = activation” value is reported as inactive: -27.1%.
In the case of `CO[C@H]1C[C@@H]2CC[C@@H](C)[C@@](O)(O2)C(=O)C(=O)N2CCCC[C@@H]2C(=O)O[C@H]([C@H](C)C[C@@H]2CC[C@H](OP(C)(C)=O)[C@H](OC)C2)CC(=O)[C@H](C)C=C(C)[C@@H](O)[C@@H](OC)C(=O)[C@H](C)C[C@H](C)C=CC=CC=C1C`, the “activity change, positive = activation” value is reported as inactive: -11.9%.
For `COc1cccc(NC(=O)c2ccc3c(=O)n4nc(Nc5ccccc5OC)sc4nc3c2)c1`, the “activity change, positive = activation” value was inactive: -33.6%.
For `O=C(Nc1ccc2oc(-c3ccc(Br)cc3)nc2c1)c1cc2ccccc2o1`, the “activity change, positive = activation” value was inactive: 24.5%.
In the case of `Cc1ccc(-c2noc(CCCC(=O)NCc3ccco3)n2)cc1`, the “activity change, positive = activation” value is reported as inactive: -60.7%.
For `CC(C)n1c(=N)c(C(=O)NCc2ccccc2)cc2c(=O)n3ccccc3nc21`, the “activity change, positive = activation” value was inactive: -20.3%.
For `Cc1ccc(C)c(N2CCN(CCCNC(=O)c3cnn(-c4ccccc4Cl)c3C3CCN(C(=O)OC(C)(C)C)CC3)CC2)c1`, the “activity change, positive = activation” value was inactive: -30.5%.
For `Cc1c[nH]c(C=C2C(=O)Nc3ccccc32)c1CCC(=O)O`, the “activity change, positive = activation” value was inactive: 5.63%.
In the case of `COc1ccc(OC(=O)N(CC(=O)O)Cc2ccc(OCCc3nc(-c4ccccc4)oc3C)cc2)cc1`, the “activity change, positive = activation” value is reported as inactive: -10.2%.
For `CCc1cc(Nc2nccc(-c3c(-c4ccc(OC)c(C(=O)Nc5c(F)cccc5F)c4)nc4ccccn34)n2)c(OC)cc1N1CCC(N2CCN(S(C)(=O)=O)CC2)CC1`, the “activity change, positive = activation” value was inactive: -0.352%.
With `O=C(Cn1c(=O)n(Cc2ccc3c(c2)OCO3)c(=O)c2ccc(C(=O)NC3CCCCC3)cc21)Nc1ccccc1F` the “activity change, positive = activation” value was inactive: -17.5%.
In the case of `O=C(COc1ccc2oc3c(c2c1)CCCC3)Nc1ccc(Br)cc1`, the “activity change, positive = activation” value is reported as inactive: -30.6%.
For `Cc1ccc(C(=O)Nc2cccc(C(F)(F)F)c2)cc1-c1ccc2nc(NCCN3CCOCC3)ncc2c1`, the “activity change, positive = activation” value was inactive: -21.2%.
For `Cc1ccc(Cl)cc1-n1ncc2c(NC3CCCCCC3)ncnc21`, the “activity change, positive = activation” value was inactive: -32.1%.
With `CCc1nnc2c3ccccc3nc(Nc3ccc(C(C)=O)cc3)n12` the activity change, positive = activation was inactive: -20.1% [at 11.5 µM, percent change from vehicle, -100% = no light].

For `COc1cc2c(cc1NC(=O)C(C)Oc1ccccc1)oc1ccccc12` (stereo unspecified), the Potency was active: 3.98 µM.
